Reference: PubChem BioAssay AID504332 (National Center for Advancing Translational Sciences (NCATS), 2011)
Hit rate of the full screen: of about 350,000 compounds, about 31,000 (8.9%) were called active. Inconclusive results, whose numbers are uncertain, are shown with a selection of clear calls. Calls follow the shape of the dose curve; as a rule, active = well fitted inhibition curve with a large enough effect; inconclusive = small, poorly fitted or top-dose-only effect; inactive = no such curve, though single readings can be large or run the other way. Potencies beside an inconclusive call are fits to weak or partial responses and may not hold up. The source holds several records for some structures; these can differ, active in one and inactive in another. Where a SMILES comes first, the peptide text is derived from it. [ ]: non-standard residue; d: D form. pGlu = O=C1CC[CH](C(=O)O)N1

The molecules below were run against Histone-lysine N-methyltransferase EHMT2 (Homo sapiens) (UniProt Q96KQ7) (assay: qHTS Assay for Inhibitors of Histone Lysine Methyltransferase G9a). Settings: G9a H3K9 monomethylation, AlphaScreen, 2 h; activity, negative = inhibition: at 59 µM (top of the series) unless noted.
Chain of UniProt Q96KQ7 (Q96KQ7 whole entry, looked up): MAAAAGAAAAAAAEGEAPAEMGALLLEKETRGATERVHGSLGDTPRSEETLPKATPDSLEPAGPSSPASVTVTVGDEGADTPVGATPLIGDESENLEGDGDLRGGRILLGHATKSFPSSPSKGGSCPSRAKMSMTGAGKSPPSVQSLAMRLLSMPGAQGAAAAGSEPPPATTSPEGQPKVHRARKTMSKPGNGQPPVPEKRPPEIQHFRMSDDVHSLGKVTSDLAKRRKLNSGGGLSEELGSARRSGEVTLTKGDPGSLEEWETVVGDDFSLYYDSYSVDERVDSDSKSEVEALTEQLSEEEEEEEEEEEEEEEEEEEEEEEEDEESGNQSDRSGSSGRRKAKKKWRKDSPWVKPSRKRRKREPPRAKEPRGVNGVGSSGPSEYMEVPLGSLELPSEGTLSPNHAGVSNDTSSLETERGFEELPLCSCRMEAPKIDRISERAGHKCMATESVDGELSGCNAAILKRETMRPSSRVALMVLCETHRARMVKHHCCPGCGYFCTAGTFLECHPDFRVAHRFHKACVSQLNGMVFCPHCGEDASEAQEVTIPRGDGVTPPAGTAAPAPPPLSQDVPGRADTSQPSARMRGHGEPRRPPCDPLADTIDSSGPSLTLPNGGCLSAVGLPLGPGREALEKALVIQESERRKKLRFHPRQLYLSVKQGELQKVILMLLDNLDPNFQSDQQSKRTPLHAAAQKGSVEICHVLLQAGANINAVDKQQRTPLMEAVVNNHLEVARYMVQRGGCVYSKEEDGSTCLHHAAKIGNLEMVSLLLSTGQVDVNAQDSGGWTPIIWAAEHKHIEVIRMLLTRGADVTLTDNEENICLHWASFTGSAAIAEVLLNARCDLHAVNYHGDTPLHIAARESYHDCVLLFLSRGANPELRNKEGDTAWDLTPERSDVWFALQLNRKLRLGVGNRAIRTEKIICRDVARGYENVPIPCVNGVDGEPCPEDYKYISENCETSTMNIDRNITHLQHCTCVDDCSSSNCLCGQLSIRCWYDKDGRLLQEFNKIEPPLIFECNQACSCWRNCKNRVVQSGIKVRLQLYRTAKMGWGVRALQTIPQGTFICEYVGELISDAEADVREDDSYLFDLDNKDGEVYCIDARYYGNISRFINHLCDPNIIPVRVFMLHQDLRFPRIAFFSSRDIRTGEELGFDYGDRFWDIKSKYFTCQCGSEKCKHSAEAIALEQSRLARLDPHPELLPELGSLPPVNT
Outline: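 AlphaScreen detection with an anti-monomethyl H3K9 antibody quantified product after a 2 h room-temperature reaction containing 500 nM biotinylated H3K9 peptide, 20 µM SAM and 20 nM enzyme, which had been preincubated 15 min with compound.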
% is scaled to controls: 0 for no effect and ±100 for the full control effect; potency is read from the fitted curve at half-maximal effect; tags tell the direction and shape of the fitted curve.
Also: nearly all actives have a fitted effect of over 75% in size.

SMILES | Potency | activity, negative = inhibition
Cc1ccc(NC(=O)c2cc(S(=O)(=O)N3CCOCC3)ccc2F)c(C)c1 | inactive | 
CC(Oc1ccc(F)cc1)C(=O)Nc1cc(C(F)(F)F)ccc1-n1cncn1 (stereo not drawn) | active: 56.2 µM | 
CCOC(=O)CSc1nc(C)cc(C)c1C#N | inconclusive: 3.16 µM [inhibitor, single point] | 
COc1ccc(C(=S)Nc2ccc(N(C)C)cc2)cc1 | inconclusive: 3.55 µM [inhibitor, single point] | 
COc1ccc(N(C(=O)c2cccc([N+](=O)[O-])c2)S(=O)(=O)c2ccc3c(c2)n(C)c(=O)n3C)cc1 | inconclusive: 39.8 µM [inhibitor, full curve, poor fit] | 
Cc1nc2ncccn2c1-c1csc(Nc2ccc(O)cc2)n1 | active: 11.2 µM | 
Cc1ccc(/C=C/S(=O)(=O)NCC(=O)OCC(=O)Nc2c(F)cccc2F)cc1 | active: 20 µM | 
COc1cc(C)c(NC(=O)C(=S)NCCc2ccccc2)cc1C | inconclusive: 3.55 µM [inhibitor, partial curve, poor fit] | 
CCCCn1c(Cn2nc(C(=O)O)c3ccccc3c2=O)nc2cc(S(N)(=O)=O)ccc21 | inconclusive: 8.91 µM [inhibitor, partial curve, poor fit] | 
CCOc1ccc(C(=O)NC(=S)Nc2ccccc2OC)cc1[N+](=O)[O-] | inconclusive: 6.31 µM [inhibitor, single point] | 
CC(C)(C)C1CCc2c(sc(N)c2C(N)=O)C1 (stereo not drawn) | active: 3.98 µM | 
CC1(C)NC(=O)N(CC(=O)OCC(=O)Nc2sccc2C#N)C1=O | inconclusive: 56.2 µM [inhibitor, partial curve] | 
CCOC(=O)C1CCN(C(=O)C2COc3ccccc3O2)CC1 (stereo not drawn) | inactive | 
CC(NC(=O)C1CCN(C(=O)N2CCOc3ccc(Cl)cc32)CC1)c1ccccc1 (stereo not drawn) | inconclusive: 7.08 µM [inhibitor, full curve, poor fit] | 
O=C(COC(=O)C1CCCC1)Nc1ncc(Cl)cc1Cl | inconclusive: 89.1 µM [inhibitor, single point] | 
O=C(NCCc1c[nH]c2ccccc12)c1ccc(Cl)cc1 | inconclusive: 70.8 µM [inhibitor, partial curve] | 
Cc1c(N=Cc2ccccn2)c(=O)n(-c2ccccc2)n1C | active: 70.8 µM | 
Cc1ccc(N2CC(C(=O)Nc3nccs3)CC2=O)cc1Cl (stereo not drawn) |  | inactive: -22.3% [at 12.7 µM]
Nc1nc(-c2ccc(Cl)cc2)c(N=Nc2ccc(S(=O)(=O)N3CCOCC3)cc2)s1 | inconclusive: 3.16 µM [inhibitor, full curve, poor fit] | 
CCC1(C)C2(C#N)C(N)=NC(OC)(OC)C12C#N (stereo not drawn) | inconclusive: 3.16 µM [inhibitor, single point] | 
Cc1ccc(C(=O)N2CCN(c3ccc([N+](=O)[O-])c(NCc4cccnc4)c3)CC2)cc1 | inconclusive: 89.1 µM [inhibitor, single point] | 
Cc1cc(N)ccc1NC(=O)CN1CCCC1 | active: 25.1 µM | 
Cc1ccccc1-n1c(C)nnc1SCc1cc(=O)oc2ccc3ccccc3c12 | inconclusive: 17.8 µM [inhibitor, single point] | 

SMILES | Potency | activity, negative = inhibition
COc1ccccc1Nc1nn2c(=O)c3ccc(C(=O)Nc4ccc(F)cc4)cc3nc2s1 | inconclusive: 6.31 µM [inhibitor, single point] | 
CN1CCCC[C@@H]1CCN1c2ccccc2Sc2ccc(S(C)=O)cc21 (stereo partly drawn) | active: 7.94 µM | 
CCn1c2ccccc2c2nnc(NN)nc21 | inconclusive: 39.8 µM [inhibitor, single point] | 
CCCN1C(=O)c2ccccc2NC1c1cc(OC)c(OC)c(OC)c1 (stereo not drawn) | inactive | 
CN[C@@H]1[C@H](O[C@H]2[C@H](O[C@H]3[C@H](O)[C@@H](O)[C@H](N=C(N)N)[C@@H](O)[C@@H]3N=C(N)N)O[C@@H](C)[C@]2(O)C=O)O[C@@H](CO)[C@H](O)[C@H]1O | active: 17.8 µM | 
CCOC(=O)c1[nH]c(C)c(CCC(=O)NCc2ccc(C)cc2)c1C | inactive | 
CCc1cccc(-n2c(=O)c3cccnc3n2CC(=O)NCc2ccccc2Cl)c1 | inactive | 
Cc1ccc(NC(=O)C2=CCN(S(=O)(=O)c3ccc(F)cc3)CC2)cc1 | inconclusive: 89.1 µM [inhibitor, single point] | 
C#CCNC(=O)C1=C[C@H](C2CCCCC2)C[C@H](OCCCCO)O1 |  | inconclusive: -57.9% [inhibitor]
Cc1ccccc1C(=O)N1CCN(c2ccc(NC(=O)c3cccnc3Cl)cc2)CC1 | inconclusive: 89.1 µM [inhibitor, single point] | 
COc1ccc(-c2csc(NC(=O)c3ccccc3Br)c2C(=O)O)cc1 | inconclusive: 79.4 µM [inhibitor, single point] | 
COc1ccc(N2CCN(C(=O)c3ccc(NC(=O)c4nsc5ccccc45)cc3)CC2)cc1 | active: 10 µM | 
Nc1c(N(CCC2=CCCCC2)C(=O)c2ccccc2F)c(=O)[nH]c(=O)n1Cc1ccccc1 | inconclusive: 31.6 µM [inhibitor, single point] | 
O=C(NC(C(=O)c1ccccc1)N1CCOCC1)c1ccccc1 (stereo not drawn) |  | inconclusive: -61.6% [inhibitor]
S=C(NCc1ccco1)Nc1ccccn1 | inconclusive: 3.16 µM [inhibitor, full curve, poor fit] | 
Cc1nccn1-c1c2c(c(C#N)c3nc4ccccc4n13)CCC2 | inconclusive: 7.08 µM [inhibitor, single point] | 
COc1ccc(C(=O)CC(Nc2ccc([N+](=O)[O-])cc2)c2ccc(OC)cc2)cc1 (stereo not drawn) | inconclusive: 20 µM [inhibitor, single point] | 
CCOC(=O)N1CCC(N2Cc3cccc(C(=O)NC(C)c4ccc5c(c4)OCCO5)c3C2=O)CC1 (stereo not drawn) | active: 39.8 µM | 
CCCCCCC(=O)NCC(=O)OCC(=O)c1ccccc1 | active: 25.1 µM | 
O=C1CC(c2ccco2)CC2=C1C(c1ccccc1)n1nc(C(F)(F)F)nc1N2 (stereo not drawn) | inconclusive: 31.6 µM [inhibitor, single point] | 
COc1ccc(N(CC(=O)NCc2ccco2)S(=O)(=O)c2c(C)nn(C)c2C)cc1 | inconclusive: 89.1 µM [inhibitor, single point] | 
NC(=O)c1c(NC(=O)C(=O)NCCCN2CCOCC2)sc2c1CCCC2 | inconclusive: 89.1 µM [inhibitor, single point] | 
Cc1c(Cl)cccc1NC(=O)C1NC(=O)CC1c1ccccc1 (stereo not drawn) | inactive | 

SMILES | Potency | activity, negative = inhibition
Nc1n[nH]c(N)c1N=Nc1cccc(C(F)(F)F)c1 | active: 70.8 µM | 
COc1ccc(N2CC(C(=O)N[C@H](C(=O)NC3CCCC3)C(C)C)CC2=O)cc1 (stereo partly drawn) | inactive | 
Cc1ccc(NC2c3ncccc3C(=O)N2Cc2cccs2)cc1 (stereo not drawn) | active: 44.7 µM | 
CCN(CC)CCN1C(=O)Cn2c(C)c(C)c3cccc1c32 | inconclusive: 50.1 µM [inhibitor, single point] | 
Cc1c(CN(C)C(=O)c2ccc(Br)o2)cnn1C | inconclusive: 28.2 µM [inhibitor, single point] | 
Cc1ccc(CSc2oc(-c3ccco3)nc2S(=O)(=O)c2ccc(Br)cc2)cc1 | inconclusive: 10 µM [inhibitor, partial curve, poor fit] | 
CCOc1ccc(C2=Nn3cnnc3SC2)cc1 | inconclusive: 15.8 µM [inhibitor, partial curve, poor fit] | 
CCOC(=O)c1ccc(N2C(=O)CC(NC3CCN(C(=O)c4ccc(F)cc4)CC3)C2=O)cc1 (stereo not drawn) | active: 44.7 µM | 
Cc1cc(=O)oc(C)c1C(=O)NCc1ccco1 | inconclusive: 89.1 µM [inhibitor, single point] | 
Cc1ccc(C)c(OCC(=O)N2CCc3ccccc3C2)c1 | inconclusive: 89.1 µM [inhibitor, single point] | 
CC(C)CC(NC(=O)C1CCC(=O)N1)C(=O)NC(CC(C)C)C(=O)N1CCCC1C(N)=O (stereo not drawn) ([pGlu]LLP-NH2; configuration not given here) | inconclusive: 89.1 µM [inhibitor, single point] | 
N#Cc1ccc(C23CC4(C2)[C@H](CN(CC2CCCCC2)[C@@H]4c2ccccc2)C3c2ccc(C(F)(F)F)cc2)cc1 (stereo partly drawn) | inconclusive: 3.16 µM [inhibitor, single point] | 
CNC(=S)N/N=C(\C)c1ccc(N2CCOCC2)cc1 | inconclusive: 20 µM [inhibitor, partial curve, poor fit] | 
O=C1NC(c2cccs2)Nc2ccccc21 (stereo not drawn) | inconclusive: 20 µM [inhibitor, partial curve, poor fit] | 
O=C(Nc1cccc(C(=O)Nc2cccc(Br)c2)c1)c1ccccc1 | inconclusive: 0.891 µM [inhibitor, partial curve, poor fit] | 
O=C(NC(NC(=S)Nc1ccccc1C(=O)O)C(Cl)(Cl)Cl)c1cccc([N+](=O)[O-])c1 (stereo not drawn) | inconclusive: 17.8 µM [inhibitor, partial curve, poor fit] | 
CCn1c(SCc2ccc(F)cc2)nc2c(c1=O)SCC2 | inconclusive: 44.7 µM [inhibitor, partial curve] | 
CCOc1ccc(N)c(SSc2cc(OCC)ccc2N)c1 | active: 0.562 µM | 
Cc1cccc(S(=O)(=O)NC(Cc2c[nH]c3ccccc23)C(=O)O)c1 (stereo not drawn) | inactive | 
C/C=C/C(=O)OCC(=O)Nc1ccc(OC)c(OC)c1 | inactive | 
O=C(NNC1CC(=O)N(c2cccc(Cl)c2)C1=O)c1cccnc1 (stereo not drawn) | inconclusive: 7.94 µM [inhibitor, single point] | 
CC(=O)N1CCN(c2ccc(NCc3cccc(C)c3)cc2)CC1 |  | inconclusive: -69.7% [inhibitor] [at 2.33 µM]
